Assay results taken from article PMC10387491.
These are yes or no findings as the source states them, for the method shown. In cells and extracts the contact can be indirect. Some binding calls cover weakened binding; strength is not graded here.

Chains of the proteins cited; added tags and fusions are not shown.
UniProt P19474: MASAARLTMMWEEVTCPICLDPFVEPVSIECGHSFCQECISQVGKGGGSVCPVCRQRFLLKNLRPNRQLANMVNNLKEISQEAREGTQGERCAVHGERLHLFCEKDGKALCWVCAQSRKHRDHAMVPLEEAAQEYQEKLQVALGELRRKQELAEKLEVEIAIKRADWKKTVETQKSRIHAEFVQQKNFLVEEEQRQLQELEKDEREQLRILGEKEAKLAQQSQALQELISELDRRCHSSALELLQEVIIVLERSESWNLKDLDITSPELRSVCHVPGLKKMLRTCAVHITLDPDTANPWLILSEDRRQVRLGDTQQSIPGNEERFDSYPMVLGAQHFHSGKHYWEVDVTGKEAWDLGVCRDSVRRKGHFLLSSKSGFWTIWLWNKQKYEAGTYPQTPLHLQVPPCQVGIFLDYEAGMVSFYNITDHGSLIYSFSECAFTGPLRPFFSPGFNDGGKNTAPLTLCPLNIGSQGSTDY

Legend:
GFP-tag hPCL3S (human) = GFP-tag hPCL3S (human) (UniProt Q5T6S3); assay: co-IP; 293T cells transiently transfected with the indicated plasmids (Lipofectamine 2000), lysed after 48 h; cleared lysates immunoprecipitated with GFP or FLAG antibody and protein G-Sepharose beads; immunoblot
FLAG-tag hPCL3L (human) = FLAG-tag hPCL3L (human) (UniProt Q5T6S3); assay: as above
[1] = target: hPCL3L (long isoform of human polycomb-like protein 3, PHD finger protein 19) (human (endogenous in A549)) (UniProt Q5T6S3); assay: co-IP; A549 cell lysate immunoprecipitated with anti-hPCL3S or anti-hPCL3L antibody (rabbit IgG as control); Western blotting of the IP product
[2] = target: hPCL3S (shorter isoform of human polycomb-like protein 3, PHD finger protein 19) (human (endogenous in A549)) (UniProt Q5T6S3); assay: as above

Q: For “FLAG-tag hPCL3L (from UniProt Q5T6S3-1 1-580)”, which binding (GFP-tag hPCL3S (human)) is on record?
A: no binding

Q: What does the source list for “TRIM21 expressed in 293T cells (from UniProt P19474 1-475)”?
A: binding (FLAG-tag hPCL3L (human)): binds; binding (GFP-tag hPCL3S (human)): binds

Q: What does the source list for “tripartite motif containing-21 (TRIM21) (from UniProt P19474 1-475)”?
A: binding [1]: binds; binding [2]: binds
